Reference: PubChem BioAssay AID360 (National Center for Advancing Translational Sciences (NCATS), 2006)
About 550 (1.1%) of roughly 48,000 compounds were called active. Inconclusive results (about 4%) are left out. Cut-off read from the data, not from the text of the source: active = potency below about 15 µM; inconclusive = mostly about 16 µM to 33 µM; inactive = weaker than that. The list shows a part of the results.

molecular target: Lysosomal acid glucosylceramidase (Homo sapiens) (UniProt P04062); experiment: Glucocerebrosidase; conditions: purified enzyme, resorufin glucoside fluorescence (screen aimed at inhibitors), 20 min;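 note: the screen sought inhibitors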
UniProt P04062, sequence (P04062 whole entry, looked up): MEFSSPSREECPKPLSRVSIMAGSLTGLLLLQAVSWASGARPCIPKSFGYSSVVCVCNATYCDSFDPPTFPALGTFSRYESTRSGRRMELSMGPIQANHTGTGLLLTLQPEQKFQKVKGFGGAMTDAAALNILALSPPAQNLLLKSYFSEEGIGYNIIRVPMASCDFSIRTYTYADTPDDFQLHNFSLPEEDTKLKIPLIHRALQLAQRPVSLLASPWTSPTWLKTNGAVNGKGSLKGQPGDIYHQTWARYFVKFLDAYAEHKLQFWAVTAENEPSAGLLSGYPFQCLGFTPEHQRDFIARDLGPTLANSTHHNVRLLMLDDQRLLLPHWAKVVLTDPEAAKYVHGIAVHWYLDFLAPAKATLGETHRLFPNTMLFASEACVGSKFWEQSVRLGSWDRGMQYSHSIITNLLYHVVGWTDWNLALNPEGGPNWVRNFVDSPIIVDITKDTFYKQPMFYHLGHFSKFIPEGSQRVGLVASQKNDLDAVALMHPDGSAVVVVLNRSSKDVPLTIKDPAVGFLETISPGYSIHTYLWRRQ
Outline: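 Wild-type enzyme at 0.2 nM final in 50mM citric acid/KH2PO4, 10mM sodium taurocholate, 0.01% tween-20, pH 5.9, with resorufin beta-D-glucopyranoside at 30 uM final. Compounds titrated, 20 min at RT, red fluorescence read; AC50 from titration.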
Potency is the fitted concentration of half-maximal effect.

| SMILES | Potency |
| --- | --- |
| Cc1ccc(CS(=O)(=O)CCC(=O)NCc2cccs2)cc1 | inactive: > 76.9 µM |
| O=C(CCC(=O)N1CCCc2ccccc21)N1CCN(S(=O)(=O)c2ccccc2)CC1 | inactive: > 76.9 µM |
| CCn1c(Cn2nnc(-c3ccccc3)n2)nnc1SCC(=O)N1CCOCC1 | inactive: > 76.9 µM |
| O=C(NCC1CCCO1)C1CCN(C(=O)c2ccc(Br)cc2)CC1 (stereo not drawn) | inactive: > 76.9 µM |
| O=C(C1CCN(c2nnc(-n3cccc3)s2)CC1)N1CCN(c2cccc(C(F)(F)F)c2)CC1 | inactive: > 76.9 µM |
| O=C(CSc1nnnn1C1CCCCC1)NCc1ccc2c(c1)OCO2 | inactive: > 76.9 µM |
| O=C(NC1CC2CCC1C2)C1CCN(S(=O)(=O)c2ccc(-c3nn[nH]n3)cc2)CC1 (stereo not drawn) | inactive: > 76.9 µM |
| CCOC(=O)C1CCCN(C(=O)c2cc3ncc(Br)cn3n2)C1 (stereo not drawn) | inactive: > 76.9 µM |
| CCCCn1c(N)c(N(CCOC)C(=O)CSc2nc3ccc(C)cc3[nH]2)c(=O)[nH]c1=O | inactive: > 76.9 µM |
| O=C(C1CCCO1)N1CCC(c2nc3ccccc3[nH]2)CC1 (stereo not drawn) | inactive: > 76.9 µM |
| Cc1ccc2nc(N3CCN(Cc4nnnn4Cc4ccccc4)CC3)c(C#N)cc2c1 | inactive: > 76.9 µM |
| O=C(Cn1cnc2c(cnn2-c2ccccc2)c1=O)N1CCN(c2ccc(F)cc2)CC1 | inactive: > 76.9 µM |
| CCOc1cccc2cc(C(=O)N3CCc4ccccc43)c(=O)oc12 | inactive: > 76.9 µM |
| COc1ccc(CCNC(=O)C2CCCN(C(=O)N(C)C)C2)c(OC)c1 (stereo not drawn) | inactive: > 76.9 µM |
| O=C(O)c1cc2cc(Cl)cc(Cl)c2oc1=O | inactive: > 76.9 µM |
| O=C(CSc1nccc(=O)[nH]1)N1CCCc2ccccc21 | inactive: > 76.9 µM |
| O=C(O)c1c(-c2ccccc2)c2oc3ccccc3c2[nH]c1=O | inactive: > 76.9 µM |
| N#CC1=C(N)Oc2c(ccc3cccnc23)C1c1cccnc1 (stereo not drawn) | inactive: > 76.9 µM |
| O=C(Nc1nncs1)c1c(F)c(F)c(F)c(F)c1F | inactive: > 76.9 µM |
| S=c1[nH]nc(C23CC4CC(CC(C4)C2)C3)n1Cc1ccco1 | inactive: > 76.9 µM |
| Cc1ccc(OCC(=O)N2CCCCC2)c(Br)c1 | inactive: > 76.9 µM |
| O=S(=O)(NC1CC1)c1ccc(S(=O)(=O)N2CCCC(c3nc(-c4cccnc4)no3)C2)cc1 (stereo not drawn) | inactive: > 76.9 µM |

| SMILES | Potency |
| --- | --- |
| Cn1c(=O)n(C)c2cc(NS(C)(=O)=O)ccc21 | inactive: > 76.9 µM |
| COc1ccc(Oc2c(C)oc3cc(OC(=O)N4CCOCC4)ccc3c2=O)cc1 | inactive: > 76.9 µM |
| Cn1cc(C(=O)NCCc2ccccc2)c(=O)c2cc(S(=O)(=O)N3CCOCC3)ccc21 | inactive: > 76.9 µM |
| Oc1ccc(COCc2ccccc2)c2cccnc12 | inactive: > 76.9 µM |
| COC(=O)c1ccc2nc(C(F)(F)F)[nH]c2c1 | inactive: > 76.9 µM |
| COc1ccccc1NC(=O)c1oc2ccccc2c1NC(=O)c1cc(OC)c(OC)c(OC)c1 | inactive: > 76.9 µM |
| O=C(COC(=O)C1(c2ccccc2F)CCCC1)N1CCN(C(=O)c2ccco2)CC1 | inactive: > 76.9 µM |
| C/C(=C\C(=O)Nc1nccs1)c1ccccc1 | inactive: > 76.9 µM |
| C=CCNc1nc(Nc2ccc(OC)cc2OC)nc(OCC)n1 | inactive: > 76.9 µM |
| Cc1nc(SCc2cccc(F)c2)[nH]c(=O)c1C#N | inactive: > 76.9 µM |
| CCc1ccc2[nH]c(=O)c(CN(Cc3ccc4c(c3)OCO4)C(=O)c3ccco3)cc2c1 | inactive: > 76.9 µM |
| COc1ccc(C(=O)Cn2c(=O)c(CCC(=O)O)nn3c4ccccc4nc23)cc1OC | inactive: > 76.9 µM |
| COc1ccc(-c2c(C)n([O-])c(C)c(C)[n+]2=O)cc1OC | inactive: > 76.9 µM |
| COC(=O)Cc1c(C)c2ccc(OCC(=O)N3CCOCC3)cc2oc1=O | inactive: > 76.9 µM |
| O=c1[nH]c(=S)[nH]nc1Cc1ccccc1 | inactive: > 76.9 µM |
| Cc1cc(C)nc(N2CCCC(C(=O)Nc3cc(F)ccc3C)C2)n1 (stereo not drawn) | inactive: > 76.9 µM |
| CCc1ccccc1N(CC)C(=O)c1cn(C)c(=O)c2cc(OC)c(OC)cc12 | inactive: > 76.9 µM |
| CCNC(=O)C1CN(S(=O)(=O)c2ccccc2)CCN1S(=O)(=O)c1ccccc1 (stereo not drawn) | inactive: > 76.9 µM |
| O=C(C1=C(O)C(=O)N(CCN2CCOCC2)C1c1cccs1)c1cc2ccccc2o1 (stereo not drawn) | inactive: > 76.9 µM |
| Cc1cc(Cl)c(S(=O)(=O)NCc2ccncc2)cc1OCC(N)=O | inactive: > 76.9 µM |
| Cc1nn(-c2ccccc2)c2c1C(c1c(C)[nH]c(C#N)c1C)C(C#N)=C(N)O2 (stereo not drawn) | active: 11 µM |
| COCC(=O)NCc1nc2ccccc2n1Cc1ccccc1F | inactive: > 76.9 µM |

| SMILES | Potency |
| --- | --- |
| O=C(Nc1nncs1)c1ccc(S(=O)(=O)c2ccccc2)cc1 | inactive: > 76.9 µM |
| COc1cc2cc(CN(Cc3nnnn3Cc3ccco3)C3CCCCC3)c(=O)[nH]c2cc1OC | inactive: > 76.9 µM |
| Cc1cc(C(=O)CN2C(=O)NC(C)(c3cccc(Br)c3)C2=O)c(C)n1Cc1ccco1 (stereo not drawn) | inactive: > 76.9 µM |
| CN=C1SC(CC(=O)Nc2cccc(C(F)(F)F)c2)C(=O)N1C (stereo not drawn) | inactive: > 76.9 µM |
| CCOC(=O)CNC(=O)c1cc(C)oc1C | inactive: > 76.9 µM |
| CCCC(=O)c1cc2cc(Cl)ccc2oc1=O | inactive: > 76.9 µM |
| CCC(C)(C)n1nnnc1C(c1ccc(N(C)C)cc1)N1CCN(C2CCCCC2)CC1 (stereo not drawn) | inactive: > 76.9 µM |
| N#CCCN(Cc1cccnc1)S(=O)(=O)c1ccc(S(=O)(=O)NC2CCCCC2)cc1 | inactive: > 76.9 µM |
| c1ccc2nc(-c3nc4ccccc4[nH]3)ccc2c1 | inactive: > 76.9 µM |
| CCSc1nc2c(c(=O)[nH]c(=O)n2C)n1CC(O)COc1ccccc1C (stereo not drawn) | inactive: > 76.9 µM |
| CN1CCN(CCCNc2nc3ccccc3c3nc(-c4ccccc4)nn23)CC1 | inactive: > 76.9 µM |
| COCCOC(=O)C1=C(N)OC2=C(C(=O)CCC2)C1c1cccnc1 (stereo not drawn) | inactive: > 76.9 µM |
| O=C(COC(=O)CN1C(=O)c2ccccc2C1=O)Nc1ncc(Cl)cc1Cl | inactive: > 76.9 µM |
| O=C(CC1N=C2c3ccccc3N=C(SCc3ccc(Cl)cc3)N2C1=O)NCc1ccco1 (stereo not drawn) | inactive: > 76.9 µM |
| O=C(NCc1ccc(F)cc1)c1cc(-c2cccs2)on1 | inactive: > 76.9 µM |
| CCOC(=O)C1=C(CSc2nccn2C)NC(=O)NC1c1ccc2c(c1)OCO2 (stereo not drawn) | inactive: > 76.9 µM |
| CCOC(=O)C12CNC(=O)C(C(=O)OCC)(CNC1=O)C2 | inactive: > 76.9 µM |
| COc1cc(NS(=O)(=O)c2ccc(C)cc2)ccc1-n1cnnn1 | inactive: > 76.9 µM |
| CCSc1nc(O)c(C2OC(=O)c3c2ccc(OC)c3OC)c(=O)n1CC (stereo not drawn) | inactive: > 76.9 µM |
| Cc1ccc(Cl)cc1N1CCN(C(=O)C2CCN(S(=O)(=O)c3c(C)nn(C)c3C)CC2)CC1 | inactive: > 76.9 µM |
| OCC1OC(n2nnc3ccccc32)C(O)C(O)C1O (stereo not drawn) | inactive: > 76.9 µM |
| CN1CCCN(C(=O)c2ccc(Cl)c(S(=O)(=O)N(C)c3ccccc3)c2)CC1 | inactive: > 76.9 µM |

| SMILES | Potency |
| --- | --- |
| Cc1ccc(N2CCN(c3ccc(C)cc3)C2c2ccncc2)cc1 | inactive: > 76.9 µM |
| CCOC(=O)CC(=O)CSc1nc2nc(C)cc(C)n2n1 | inactive: > 76.9 µM |
| COc1ccc(NC(=O)N2CCCCC2)cc1 | inactive: > 76.9 µM |
| COC(=O)c1ccccc1NC(=O)CN1CCC(C(=O)c2ccc3c(c2)OCCO3)CC1 | inactive: > 76.9 µM |
| CC(C)C(NC(=O)C1CCCCC1)C(=O)Nc1ccc2c(c1)OCCO2 (stereo not drawn) | inactive: > 76.9 µM |
| N#Cc1nc(-c2ccc(OCc3ccc(Cl)cc3)cc2)oc1N1CCOCC1 | inactive: > 76.9 µM |
| Cn1c(=O)c(NCCO)c2c3c(cccc31)C(=O)c1ccccc1-2 | inactive: > 76.9 µM |
| COCCn1nnnc1C(C(C)C)N(Cc1cccnc1)Cc1ccccc1Cl (stereo not drawn) | inactive: > 76.9 µM |
| CCc1cc2c(NCC(=O)O)ncnc2s1 | inactive: > 76.9 µM |
| Cc1cc(=O)oc(C)c1C(=O)NCCCN1CCN(c2ccccc2F)CC1 | inactive: > 76.9 µM |
| CCOC(=O)C1C(c2ccc(C)o2)NC(=O)NC1(O)C(F)(F)F (stereo not drawn) | inactive: > 76.9 µM |
| CCOc1ccc(NC(=O)c2cc3n(n2)C(C(F)(F)F)CC(c2ccco2)N3)cc1 (stereo not drawn) | inactive: > 76.9 µM |
| Cc1cccc(NC(=O)CS(=O)(=O)c2cn(C)c3ccccc23)c1C | inactive: > 76.9 µM |
| O=C(CN1CCC(n2nnc3cc(F)ccc32)CC1)N1CCc2ccccc2C1 | inactive: > 76.9 µM |
| O=S(=O)(NCCCCCNS(=O)(=O)c1ccc(F)cc1)c1ccc(F)cc1 | inactive: > 76.9 µM |
| CCn1c(N)c(C(=O)NCc2ccco2)sc1=S | inactive: > 76.9 µM |
| O=C(CN1C2=NCCN2c2ccccc21)c1ccco1 | inactive: > 76.9 µM |
| CCOc1ccc(C(C)(N)C(=O)O)cc1 (stereo not drawn) | inactive: > 76.9 µM |
| C=CCn1c(N)c(C(=O)OCCC)c2nc3ccccc3nc21 | inactive: > 76.9 µM |
| CCn1c(COc2ccccc2C)nnc1SCC(=O)Nc1ccc2c(c1)OCCO2 | inactive: > 76.9 µM |
| c1cc2c(cc1C1CCCN1)OCCCO2 (stereo not drawn) | inactive: > 76.9 µM |
| Cc1ccc2oc(-c3ccccc3C(=O)O)cc(=O)c2c1 | inactive: > 76.9 µM |
